At least one structure is not confirmed: it was looked up by name or label, or the drawing left a doubt. Numbered stars: 1 amine (or outer) side, 2 acyl side, 3 side chain; on linkers, the order of the positions; unused ones are H or OH. Square brackets hold non-standard residues; d marks the D form. Side chains are listed from the residue outwards. Peptide text beside a SMILES is read from it. * marks the point of attachment. C20 diacid = O=C(O)CCCCCCCCCCCCCCCCCCC(=O)*; C18 diacid = O=C(O)CCCCCCCCCCCCCCCCC(=O)*; γGlu = O=C(O)[C@H](CCC(=O)[*:2])N[*:1]; AEEA = NCCOCCOCC(=O)O; Aib = CC(C)(N)C(=O)O
Columns and labels:
GLP1R = GLP1R (Homo sapiens, UniProt P43220); experiment: hGLP1R potency, cAMP accumulation in CHO-K1 cells stably overexpressing hGLP1R; assay type: cell-based; parameters: host or cells: CHO-K1; settings: for PEC50 hGLPR1: Table 2, extended 30 amino acid peptides; for hGLPR1 PEC50: purified peptides
Description: (§1) Crude library peptides are screened in 10-fold serial dilutions of 5 concentrations, n=1 time. Tip change is done for the first two serial dilutions. Compound starting concentration (top) will be adjusted throughout the study if needed.
(§2) Purified peptides are screened in 3-fold serial dilutions of 11 concentrations, n=2 times. Tip change is done for all serial dilutions. Compound starting concentration (top) will be adjusted throughout the study. If the top concentration is adjusted or a 5-fold difference in calculated EC50 values is observed, n is increased by 1. EC50 values were calculated by nonlinear regression using sigmoid concentration-response with variable slope.
(§3) A CHO-K1 cell line stably overexpressing the hGLP1R was obtained from Euroscreen (FAST-0145L), expanded, aliquoted and frozen. An aliquot was thawed and plated in DPBS with 0.05% casein and 0.5 mM IBMX as 2000 cells/well in a 384-well format. The cells were then immediately stimulated for 30 min at room temperature with graded doses of test compound using human GLP-1(7-36) (synthesized at Gubra) as a positive control. cAMP accumulation was measured using a Cisbio assay for Gs coupled receptors (cat. no. 62AM4PEC), where the assay reagents were added as per the manufacturer's instructions and time-resolved fluorescence energy transfer recorded after one hour on a CLARIOstar (BMG Labtech) plate reader.

SCTR = SCTR (Homo sapiens, UniProt P47872); experiment: hSCTR potency, cAMP accumulation in CHO-K1 cells stably overexpressing hSCTR; assay type: cell-based; parameters: alternatively Euroscreen ES-712-AF; FAST-0161L; host or cells: CHO-K1; settings: for pEC50 hSCTR: Table 2, extended 30 amino acid peptides
Description: as §1, §2
as §3, with “Frozen division arrested CHO-K1 cells stably overexpressing the hSCTR were obtained from PerkinElmer (ES-712-AF). Alternatively, a CHO-K1” for “A CHO-K1”, “the hSCTR” for “the hGLP1R”, “Euroscreen (FAST-0161L),” for “Euroscreen (FAST-0145L),”, “human secretin” for “human GLP-1(7-36)”

Sequence of UniProt P47872 (P47872 23-440): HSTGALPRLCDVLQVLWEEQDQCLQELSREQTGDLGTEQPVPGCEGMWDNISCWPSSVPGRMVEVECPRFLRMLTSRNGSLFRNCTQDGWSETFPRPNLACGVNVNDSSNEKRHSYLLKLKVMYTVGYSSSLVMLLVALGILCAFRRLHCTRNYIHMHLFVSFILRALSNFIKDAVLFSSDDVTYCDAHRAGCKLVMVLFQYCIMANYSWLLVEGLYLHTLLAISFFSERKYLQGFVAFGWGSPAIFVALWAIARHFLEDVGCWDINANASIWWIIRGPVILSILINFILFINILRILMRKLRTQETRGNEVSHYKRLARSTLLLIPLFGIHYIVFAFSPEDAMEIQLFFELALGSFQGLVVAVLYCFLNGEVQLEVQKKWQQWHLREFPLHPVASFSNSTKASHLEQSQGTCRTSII
Sequence of UniProt P43220 (P43220 24-463): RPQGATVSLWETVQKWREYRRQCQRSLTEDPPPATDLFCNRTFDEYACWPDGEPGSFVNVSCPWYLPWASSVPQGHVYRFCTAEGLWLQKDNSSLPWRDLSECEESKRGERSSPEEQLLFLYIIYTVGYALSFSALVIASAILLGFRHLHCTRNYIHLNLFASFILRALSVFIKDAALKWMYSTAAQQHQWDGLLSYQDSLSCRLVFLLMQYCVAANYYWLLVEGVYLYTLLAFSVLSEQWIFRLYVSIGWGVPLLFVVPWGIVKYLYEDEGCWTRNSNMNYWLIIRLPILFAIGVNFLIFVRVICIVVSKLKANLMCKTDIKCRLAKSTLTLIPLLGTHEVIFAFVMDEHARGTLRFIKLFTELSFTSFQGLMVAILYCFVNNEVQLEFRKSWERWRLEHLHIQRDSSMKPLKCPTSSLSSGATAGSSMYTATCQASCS

SMILES | hGLP1R pEC50 (GLP1R; cAMP accumulation, CHO-K1 cells overexpressing hGLP1R) | hSCTR pEC50 (SCTR; cAMP accumulation, CHO-K1 cells overexpressing hSCTR) | PEC50 hGLPR1 (GLP1R) | pEC50 hSCTR (SCTR) | hGLPR1 PEC50 (GLP1R) | hSCTR pEC50 (SCTR; purified peptides) | EC50 (SCTR; purified peptides) [nM]
CC(C)C[C@H](NC(=O)[C@H](Cc1ccccc1)NC(=O)[C@H](CCCNC(=N)N)NC(=O)[C@H](CCC(N)=O)NC(=O)[C@H](CC(C)C)NC(=O)C(C)(C)NC(=O)[C@H](C)NC(=O)[C@H](CCC(=O)O)NC(=O)[C@H](CCC(=O)O)NC(=O)[C@H](CCCCNC(=O)COCCOCCNC(=O)COCCOCCNC(=O)CC[C@H](NC(=O)CCCCCCCCCCCCCCCCCCC(=O)O)C(=O)O)NC(=O)[C@H](CC(C)C)NC(=O)[C@H](Cc1ccc(O)cc1)NC(=O)[C@H](CO)NC(=O)[C@@H](NC(=O)[C@H](CC(=O)O)NC(=O)[C@H](CO)NC(=O)[C@@H](NC(=O)[C@H](Cc1ccccc1)NC(=O)[C@@H](NC(=O)CNC(=O)[C@H](CCC(N)=O)NC(=O)C(C)(C)NC(=O)[C@@H](N)Cc1c[nH]cn1)[C@@H](C)O)[C@@H](C)O)C(C)C)C(=O)N[C@@H](CCC(=O)O)C(=O)N[C@@H](Cc1c[nH]cn1)C(=O)N[C@@H](CC(C)C)C(=O)N[C@H](C(N)=O)C(C)C [compound 156] (H-H[Aib]QGTFTSDVSYLK([AEEA-AEEA-γGlu-C20 diacid])EEA[Aib]LQRFLEHLV-NH2) | 10.8 | 4.4 |  |  |  |  | 
CC(C)C[C@H](NC(=O)[C@H](Cc1ccccc1)NC(=O)[C@H](CCCNC(=N)N)NC(=O)[C@H](CCC(N)=O)NC(=O)[C@H](CCC(=O)O)NC(=O)[C@H](C)NC(=O)[C@H](C)NC(=O)CNC(=O)[C@H](CCC(=O)O)NC(=O)[C@H](CCCCNC(=O)COCCOCCNC(=O)COCCOCCNC(=O)CC[C@H](NC(=O)CCCCCCCCCCCCCCCCC(=O)O)C(=O)O)NC(=O)[C@H](CC(C)C)NC(=O)[C@H](CCCNC(=N)N)NC(=O)[C@H](CO)NC(=O)[C@@H](NC(=O)[C@H](CC(=O)O)NC(=O)[C@H](CO)NC(=O)[C@@H](NC(=O)[C@H](Cc1ccccc1)NC(=O)[C@@H](NC(=O)CNC(=O)[C@H](CCC(=O)O)NC(=O)C(C)(C)NC(=O)[C@@H](N)Cc1c[nH]cn1)[C@@H](C)O)[C@@H](C)O)C(C)C)C(=O)N[C@@H](CCC(N)=O)C(=O)N[C@@H](Cc1c[nH]cn1)C(=O)N[C@@H](CC(C)C)C(=O)N[C@H](C(=O)N[C@@H](CCC(=O)O)C(=O)N[C@@H](C)C(=O)N[C@@H](C)C(N)=O)C(C)C [compound 205] (H-H[Aib]EGTFTSDVSRLK([AEEA-AEEA-γGlu-C18 diacid])EGAAEQRFLQHLVEAA-NH2) |  |  | 11.1 | 5.3 |  |  | 
CC(C)C[C@H](NC(=O)[C@H](C)NC(=O)[C@H](C)NC(=O)[C@H](CCC(=O)O)NC(=O)[C@H](CCC(=O)O)NC(=O)[C@H](CCCCNC(=O)COCCOCCNC(=O)COCCOCCNC(=O)CC[C@H](NC(=O)CCCCCCCCCCCCCCCCCCC(=O)O)C(=O)O)NC(=O)[C@H](CC(C)C)NC(=O)[C@H](CCCNC(=N)N)NC(=O)[C@H](CO)NC(=O)[C@@H](NC(=O)[C@H](CC(=O)O)NC(=O)[C@H](CO)NC(=O)[C@@H](NC(=O)[C@H](Cc1ccccc1)NC(=O)[C@@H](NC(=O)CNC(=O)[C@H](CCC(=O)O)NC(=O)C(C)(C)NC(=O)[C@@H](N)Cc1c[nH]cn1)[C@@H](C)O)[C@@H](C)O)C(C)C)C(=O)N[C@@H](CCC(N)=O)C(=O)N[C@@H](CCCNC(=N)N)C(=O)N[C@@H](Cc1ccccc1)C(=O)N[C@@H](CC(C)C)C(=O)N[C@@H](CCC(=O)O)C(=O)N[C@@H](Cc1c[nH]cn1)C(=O)N[C@@H](CC(C)C)C(=O)N[C@H](C(=O)N[C@@H](CCC(=O)O)C(=O)N[C@@H](C)C(=O)N[C@@H](C)C(N)=O)C(C)C [compound 207] (H-H[Aib]EGTFTSDVSRLK([AEEA-AEEA-γGlu-C20 diacid])EEAALQRFLEHLVEAA-NH2) |  |  | 11.0 | 8.2 |  |  | 
CC(C)C[C@H](NC(=O)[C@H](Cc1ccccc1)NC(=O)[C@H](CCCNC(=N)N)NC(=O)[C@H](CCC(N)=O)NC(=O)[C@H](CC(C)C)NC(=O)C(C)(C)NC(=O)[C@H](C)NC(=O)[C@H](CCC(=O)O)NC(=O)[C@H](CCC(=O)O)NC(=O)[C@H](CCCCNC(=O)COCCOCCNC(=O)COCCOCCNC(=O)CC[C@H](NC(=O)CCCCCCCCCCCCCCCCCCC(=O)O)C(=O)O)NC(=O)[C@H](CC(C)C)NC(=O)[C@H](CCCNC(=N)N)NC(=O)[C@H](CO)NC(=O)[C@@H](NC(=O)[C@H](CC(=O)O)NC(=O)[C@H](CO)NC(=O)[C@@H](NC(=O)[C@H](Cc1ccccc1)NC(=O)[C@@H](NC(=O)CNC(=O)[C@H](CCC(=O)O)NC(=O)C(C)(C)NC(=O)[C@@H](N)Cc1c[nH]cn1)[C@@H](C)O)[C@@H](C)O)C(C)C)C(=O)N[C@@H](CCC(=O)O)C(=O)N[C@@H](Cc1c[nH]cn1)C(=O)N[C@@H](CC(C)C)C(=O)N[C@H](C(=O)N[C@@H](CCC(=O)O)C(=O)N[C@@H](C)C(=O)N[C@@H](C)C(N)=O)C(C)C [compound 208] (H-H[Aib]EGTFTSDVSRLK([AEEA-AEEA-γGlu-C20 diacid])EEA[Aib]LQRFLEHLVEAA-NH2) |  |  | 10.6 | 7.6 | 10.6 | 7.6 | 
CC(C)C[C@H](NC(=O)[C@H](Cc1ccccc1)NC(=O)[C@H](CCCNC(=N)N)NC(=O)[C@H](CCC(N)=O)NC(=O)[C@H](CC(C)C)NC(=O)C(C)(C)NC(=O)[C@H](C)NC(=O)[C@H](CCC(=O)O)NC(=O)[C@H](CCC(=O)O)NC(=O)[C@H](CCCCNC(=O)COCCOCCNC(=O)COCCOCCNC(=O)CC[C@H](NC(=O)CCCCCCCCCCCCCCCCCCC(=O)O)C(=O)O)NC(=O)[C@H](CC(C)C)NC(=O)[C@H](CCC(=O)O)NC(=O)[C@H](CO)NC(=O)[C@@H](NC(=O)[C@H](CC(=O)O)NC(=O)[C@H](CO)NC(=O)[C@@H](NC(=O)[C@H](Cc1ccccc1)NC(=O)[C@@H](NC(=O)CNC(=O)[C@H](CCC(=O)O)NC(=O)C(C)(C)NC(=O)[C@@H](N)Cc1c[nH]cn1)[C@@H](C)O)[C@@H](C)O)C(C)C)C(=O)N[C@@H](CCC(=O)O)C(=O)N[C@@H](Cc1c[nH]cn1)C(=O)N[C@@H](CC(C)C)C(=O)N[C@H](C(=O)N[C@@H](CCC(=O)O)C(=O)N[C@@H](C)C(=O)N[C@@H](C)C(N)=O)C(C)C [compound 210] (H-H[Aib]EGTFTSDVSELK([AEEA-AEEA-γGlu-C20 diacid])EEA[Aib]LQRFLEHLVEAA-NH2) |  |  | 11.0 | 6.8 | 11.0 | 6.7 | 190
CC(C)C[C@H](NC(=O)[C@H](Cc1ccccc1)NC(=O)[C@H](CCCNC(=N)N)NC(=O)[C@H](CCC(N)=O)NC(=O)[C@H](CC(C)C)NC(=O)C(C)(C)NC(=O)[C@H](C)NC(=O)[C@H](CCC(=O)O)NC(=O)[C@H](CCC(=O)O)NC(=O)[C@H](CCCCNC(=O)COCCOCCNC(=O)COCCOCCNC(=O)CC[C@H](NC(=O)CCCCCCCCCCCCCCCCCCC(=O)O)C(=O)O)NC(=O)[C@H](CC(C)C)NC(=O)[C@@H](NC(=O)[C@H](CO)NC(=O)[C@@H](NC(=O)[C@H](CC(=O)O)NC(=O)[C@H](CO)NC(=O)[C@@H](NC(=O)[C@H](Cc1ccccc1)NC(=O)[C@@H](NC(=O)CNC(=O)[C@H](CCC(=O)O)NC(=O)C(C)(C)NC(=O)[C@@H](N)Cc1c[nH]cn1)[C@@H](C)O)[C@@H](C)O)C(C)C)[C@@H](C)O)C(=O)N[C@@H](CCC(=O)O)C(=O)N[C@@H](Cc1c[nH]cn1)C(=O)N[C@@H](CC(C)C)C(=O)N[C@H](C(=O)N[C@@H](CCC(=O)O)C(=O)N[C@@H](C)C(=O)N[C@@H](C)C(N)=O)C(C)C [compound 211] (H-H[Aib]EGTFTSDVSTLK([AEEA-AEEA-γGlu-C20 diacid])EEA[Aib]LQRFLEHLVEAA-NH2) |  |  | 11.2 | 7.1 |  |  | 
CC(C)C[C@H](NC(=O)[C@H](CC(C)C)NC(=O)[C@H](CCC(=O)O)NC(=O)[C@H](CO)NC(=O)[C@@H](NC(=O)[C@H](CC(=O)O)NC(=O)[C@H](CO)NC(=O)[C@@H](NC(=O)[C@H](Cc1ccccc1)NC(=O)[C@@H](NC(=O)CNC(=O)[C@H](CCC(=O)O)NC(=O)C(C)(C)NC(=O)[C@@H](N)Cc1c[nH]cn1)[C@@H](C)O)[C@@H](C)O)C(C)C)C(=O)N[C@@H](CCC(=O)O)C(=O)N[C@@H](CCC(=O)O)C(=O)N[C@@H](C)C(=O)NC(C)(C)C(=O)N[C@@H](CC(C)C)C(=O)N[C@@H](CCC(N)=O)C(=O)N[C@@H](CCCNC(=N)N)C(=O)N[C@@H](Cc1ccccc1)C(=O)N[C@@H](CC(C)C)C(=O)N[C@@H](CCC(=O)O)C(=O)N[C@@H](CCCCNC(=O)COCCOCCNC(=O)COCCOCCNC(=O)CC[C@H](NC(=O)CCCCCCCCCCCCCCCCCCC(=O)O)C(=O)O)C(=O)N[C@@H](CC(C)C)C(=O)N[C@H](C(=O)N[C@@H](CCC(=O)O)C(=O)N[C@@H](C)C(=O)N[C@@H](C)C(N)=O)C(C)C [compound 214] (H-H[Aib]EGTFTSDVSELLEEA[Aib]LQRFLEK([AEEA-AEEA-γGlu-C20 diacid])LVEAA-NH2) |  |  | 10.9 | 6.1 |  |  | 

Reference: US20260201008A1, “SECRETIN-DERIVED GLP1R SELECTIVE AGONISTS” (GUBRA A/S, priority 2023, published 2026)
